Read-outs that look alike come from different tables or passages of the source.
Key:
OATP1B3 [1] = target: T1, OATP1B3 (Homo sapiens, UniProt Q9NPD5); assay: cell-based
T1 sequence (Q9NPD5 1-702): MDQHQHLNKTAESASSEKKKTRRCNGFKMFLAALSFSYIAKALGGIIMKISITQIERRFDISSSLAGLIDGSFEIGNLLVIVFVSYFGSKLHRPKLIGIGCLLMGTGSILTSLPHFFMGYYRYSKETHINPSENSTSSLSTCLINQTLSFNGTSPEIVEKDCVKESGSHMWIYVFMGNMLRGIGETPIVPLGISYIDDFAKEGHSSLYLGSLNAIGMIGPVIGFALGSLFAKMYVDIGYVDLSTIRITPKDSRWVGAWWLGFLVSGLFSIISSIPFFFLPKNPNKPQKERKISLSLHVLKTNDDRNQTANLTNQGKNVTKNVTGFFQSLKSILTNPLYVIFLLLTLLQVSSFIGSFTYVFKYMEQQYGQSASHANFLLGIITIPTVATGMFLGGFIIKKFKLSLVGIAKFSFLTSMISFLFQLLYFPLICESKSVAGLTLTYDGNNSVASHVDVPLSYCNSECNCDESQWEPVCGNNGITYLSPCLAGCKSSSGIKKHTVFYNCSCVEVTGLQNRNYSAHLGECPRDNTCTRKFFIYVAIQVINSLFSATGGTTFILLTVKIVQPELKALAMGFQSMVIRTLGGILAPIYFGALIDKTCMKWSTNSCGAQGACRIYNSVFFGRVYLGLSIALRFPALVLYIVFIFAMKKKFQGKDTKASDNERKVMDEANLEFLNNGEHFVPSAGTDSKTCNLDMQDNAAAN

OATP1B3 [2] = target: T1, OATP1B3; assay: Transporter substrate study using HEK293-OATP1B3 cells
OATP1B3 [3] = target: T1, OATP1B3; conditions: 10 μM MPAG

Compound: C[C@]12C=CC(=O)C=C1CC[C@@H]1[C@@H]2[C@@H](O)C[C@@]2(C)[C@H]1CC[C@]2(O)C(=O)CO [prednisolone]
- IC50 (OATP1B3 [1]): 119 µM

Compound: C[C@]12CC[C@@H]3c4ccc(O)cc4CC[C@H]3[C@@H]1CC[C@@H]2O[C@@H]1O[C@H](C(=O)O)[C@@H](O)[C@H](O)[C@H]1O [E217βG, Estradiol-17β-D-glucuronide]
- uptake ratio (UR) of probe substrate mediated by OATP1B3 (OATP1B3 [2]; without inhibitor, vs MOCK cells): 12.1

Compound: CO[C@H]1/C=C/O[C@@]2(C)Oc3c(C)c(O)c4c(O)c(c(/C=N/N5CCN(C)CC5)c(O)c4c3C2=O)NC(=O)/C(C)=C\C=C\[C@H](C)[C@H](O)[C@@H](C)[C@@H](O)[C@@H](C)[C@H](OC(C)=O)[C@@H]1C [rifampicin]
- Relative net uptake rate of MPAG (% of NC), Mean (OATP1B3 [3]; 0.1 μM): 64.0 % of NC
- Relative net uptake rate of MPAG (% of NC), Mean (OATP1B3 [3]; 1 μM): 37.9 % of NC
- Relative net uptake rate of MPAG (% of NC), Mean (OATP1B3 [3]; 3 μM): 12.7 % of NC
- Relative net uptake rate of MPAG (% of NC), Mean (OATP1B3 [3]; 10 μM): 6.48 % of NC
- Relative net uptake rate of MPAG (% of NC), Mean (OATP1B3 [3]; 30 μM): 4.14 % of NC
- Relative net uptake rate of MPAG (% of NC), Mean (OATP1B3 [3]; 100 μM): 6.49 % of NC
- IC50 (OATP1B3 [3]; read-out: IC50 value on OATP1B3-mediated uptake of MPAG): 0.224 µM
- inhibition rate of OATP1B3-mediated MPAG uptake (OATP1B3 [2]; 100 μM inhibitor, 10 μM MPAG): 99.7%
- inhibition rate of OATP1B3-mediated E217βG uptake (OATP1B3 [2]; rifampicin treatment, probe substrate E217βG): 92.7%

Reference: PMC11381307 (Frontiers in Pharmacology, 2024)
